# pIC50: −log10 of the molar value. Some results were stated once for a whole list of compounds, not compound by compound. At least one structure is not confirmed: it was looked up by name or label, or the drawing left a doubt.
# What was measured:
# [1] = test system: NF-kB transcriptional activity in HEK-293-NF-kB-Luc cell line overexpressing MALT1; test: NF-kB reporter assay (luciferase, MALT1 stably overexpressed); assay type: cell-based, human; details: HEK-293-NF-kB-Luc cells stably overexpressing MALT1, 24 h treatment, Bright Glo luminescence; read-out: NF-kB inhibition IC50
# Description: The NF-⇐B reporter assay was performed to screen for MALT1 inhibition mediated reduction in the NF-⇐B transcriptional activity. For this purpose, MALT1 was stably overexpressed in HEK-293—NF-⇐B-Luc cell line. Cells were seeded in poly-D-lysine coated 96-well plates in a culture medium containing the selection markers (DMEM+10% FBS+50 |g/ml Hygromycin+500 |g/ml Geniticin) and allowed to adhere overnight. On the following day, cells were treated with various concentrations of test compounds for 24 h. After 24 h of treatment with test compounds, media was removed from each well and Bright Glo™ (Promega, USA) substrate was added and incubated for further 10 min at ambient temperature. Luminescence was measured for detection of NF-⇐B reporter activity. RLUs (Relative Luminescence Units) were directly proportional to the NF-⇐B activity. % inhibition of NF-⇐B activity was calculated relative to the samples containing media with 0.1% DMSO alone as per the following formula
# OCI-Ly-10 cells = test: Anticancer assay (14 days), cell viability by CCK-8; assay type: cell-based; details: 14 days treatment, fresh treatment every 5th day, CCK-8 viability, read-out: Ly-10 (14d) inhibition IC50
# Description: OCI-Ly-10 cells (UHN, Canada) seeded in culture media (IMDM+20% FBS) in 96-well plates were treated with various concentrations of the test compounds. Cells were treated for a period of 14 days (13-15 days depending on the confluency of cells) with fresh treatments every 5th day. After the first treatment, for all subsequent treatments, the cells were centrifuged, the spent media was removed and fresh media containing the test compound was added. Cell viability was assessed using CCK-8 kit (Dojindo Laboratories, China) as per manufacturer's instructions. Plates were read in colorimeter and absorbance was detected. (Detection at 450 nm; Background correction at 650 nm). % inhibition was calculated relative to the samples containing media with 0.1% DMSO alone as per the following formula
Compound,pIC50 [1],pIC50 (OCI-Ly-10 cells)
"CCOC(C)c1c(NC(=O)Nc2ccc(-n3nccn3)c(Cl)c2)cnc2sc(C)nc12 (single isomer, unassigned) [Compound 161b, 1-(3-Chloro-4-(2H-1,2,3-triazol-2-yl)phenyl)-3-(7-(1-ethoxyethyl)-2-methylthiazolo[5,4-b]pyridin-6-yl)urea]",7.00 to 9.00,7.00 to 7.59
"COc1nc(-n2nccn2)c(Cl)cc1NC(=O)Nc1cnc2sc(C)nc2c1C(OC)C1CC1 (single isomer, unassigned) [Compound 156b, 1-(5-Chloro-2-methoxy-6-(2H-1,2,3-triazol-2-yl)pyridin-3-yl)-3-(7-(cyclopropyl(methoxy)methyl)-2-methylthiazolo[5,4-b]pyridin-6-yl)urea]",7.00 to 9.00,7.60 to 10.00
"COC(c1c(NC(=O)Nc2ccc(-n3nccn3)c(Cl)c2)cnc2sc(C)nc12)C(C)C (single isomer, unassigned) [Compound 125a, 1-(3-Chloro-4-(2H-1,2,3-triazol-2-yl)phenyl)-3-(7-(1-methoxy-2-methylpropyl)-2-methylthiazolo[5,4-b]pyridin-6-yl)urea]",6.30 to 7.00,6.30 to 6.60
"CCOC(C)c1c(NC(=O)Nc2ccc(-n3nccn3)c(Cl)c2)cnc2sc(C)nc12 (single isomer, unassigned) [Compound 161a, 1-(3-Chloro-4-(2H-1,2,3-triazol-2-yl)phenyl)-3-(7-(1-ethoxyethyl)-2-methylthiazolo[5,4-b]pyridin-6-yl)urea]",6.30 to 7.00,5.82 to 6.30
"CCOC(C)c1c(NC(=O)Nc2cnc(OC)c(Cl)c2)cnc2sc(C)nc12 (single isomer, unassigned) [Compound 162a, 1-(5-Chloro-6-methoxypyridin-3-yl)-3-(7-(1-ethoxyethyl)-2-methylthiazolo[5,4-b]pyridin-6-yl)urea]",6.30 to 7.00,6.30 to 6.60
"COC(c1c(NC(=O)Nc2ccc(-n3nccn3)c(Cl)c2)cnc2sc(C)nc12)C(C)C (single isomer, unassigned) [Compound 125b, 1-(3-Chloro-4-(2H-1,2,3-triazol-2-yl)phenyl)-3-(7-(1-methoxy-2-methylpropyl)-2-methylthiazolo[5,4-b]pyridin-6-yl)urea]",7.00 to 9.00,7.00 to 7.59
"COC(C)(c1c(NC(=O)Nc2cnc(-n3nccn3)c(C(F)(F)F)c2)cnc2sc(C)nc12)C1CC1 (single isomer, unassigned) [Compound 93a, 1-(6-(2H-1,2,3-triazol-2-yl)-5-(trifluoromethyl)pyridin-3-yl)-3-(7-(1-cyclopropyl-1-methoxyethyl)-2-methylthiazolo[5,4-b]pyridin-6-yl)urea]",,7.00 to 7.59
COC(c1c(NC(=O)Nc2cnc(-n3nccn3)c(C(F)(F)F)c2)cnc2sc(C)nc12)C(F)(F)F (stereo not drawn) [Compound 95a],7.00 to 9.00,6.30 to 6.60
"CCOC(C)c1c(NC(=O)Nc2cnc(OC)c(Cl)c2)cnc2sc(C)nc12 (single isomer, unassigned) [Compound 162b, 1-(5-Chloro-6-methoxypyridin-3-yl)-3-(7-(1-ethoxyethyl)-2-methylthiazolo[5,4-b]pyridin-6-yl)urea]",5.82 to 6.30,6.60 to 7.00
"COC(C)(c1c(NC(=O)Nc2cnc(-n3nccn3)c(C(F)(F)F)c2)cnc2sc(C)nc12)C1CC1 (single isomer, unassigned) [Compound 93b, 1-(6-(2H-1,2,3-triazol-2-yl)-5-(trifluoromethyl)pyridin-3-yl)-3-(7-(1-cyclopropyl-1-methoxyethyl)-2-methylthiazolo[5,4-b]pyridin-6-yl)urea]",7.00 to 9.00,7.60 to 10.00
"CCOC(C)c1c(NC(=O)Nc2cnc(-n3nccn3)c(Cl)c2)cnc2sc(C)nc12 (single isomer, unassigned) [Compound 164a, 1-(5-chloro-6-(2H-1,2,3-triazol-2-yl)pyridin-3-yl)-3-(7-(1-ethoxyethyl)-2-methylthiazolo[5,4-b]pyridin-6-yl)urea]",6.30 to 7.00,5.82 to 6.30
"COc1ncc(NC(=O)Nc2cnc3sc(C)nc3c2C(C)OC)cc1Cl (single isomer, unassigned) [Compound 159b, 1-(5-Chloro-6-methoxypyridin-3-yl)-3-(7-(1-methoxyethyl)-2-methylthiazolo[5,4-b]pyridin-6-yl)urea]",6.30 to 7.00,7.00 to 7.59
"COC(C)c1c(NC(=O)Nc2cnc(-n3nccn3)c(C(F)(F)F)c2)cnc2sc(C)nc12 (single isomer, unassigned) [Compound 142a, 1-(6-(2H-1,2,3-Triazol-2-yl)-5-(trifluoromethyl)pyridin-3-yl)-3-(7-(1-methoxyethyl)-2-methylthiazolo[5,4-b]pyridin-6-yl)urea]",,6.60 to 7.00
"COC(C)c1c(NC(=O)Nc2cnc(-n3nccn3)c(Cl)c2)cnc2sc(C)nc12 (single isomer, unassigned) [Compound 160a, 1-(5-Chloro-6-(2H-1,2,3-triazol-2-yl)pyridin-3-yl)-3-(7-(1-methoxyethyl)-2-methylthiazolo[5,4-b]pyridin-6-yl)urea]",6.30 to 7.00,6.60 to 7.00
"COC(C)c1c(NC(=O)Nc2cnc(-n3nccn3)c(C(F)(F)F)c2)cnc2sc(C)nc12 (single isomer, unassigned) [Compound 142b, 1-(6-(2H-1,2,3-Triazol-2-yl)-5-(trifluoromethyl)pyridin-3-yl)-3-(7-(1-methoxyethyl)-2-methylthiazolo[5,4-b]pyridin-6-yl)urea]",7.00 to 9.00,7.60 to 10.00
"CCOC(C)c1c(NC(=O)Nc2cnc(-n3nccn3)c(Cl)c2)cnc2sc(C)nc12 (single isomer, unassigned) [Compound 164b, 1-(5-chloro-6-(2H-1,2,3-triazol-2-yl)pyridin-3-yl)-3-(7-(1-ethoxyethyl)-2-methylthiazolo[5,4-b]pyridin-6-yl)urea]",7.00 to 9.00,7.00 to 7.59

# From patent publication US20190275012A9, “SUBSTITUTED THIAZOLO-PYRIDINE COMPOUNDS AS MALT1 INHIBITORS” (Lupin Limited, priority 2016, published 2019)
